# Source: the supplement of paper PMC12217912
# The list shows a part of the results. The full chains were built here from the parent and the listed change. Values near 0.05 are background.
# B1: TEV protease; numbered along this chain (parent)
# chain: MGESLFKGPRDYNPISSSICHLTNESDGHTTSLYGIGFGPFIITNKHLFRRNNGTLVVQSLHGVFKVKDTTTLQQHLVDGRDMIIIRMPKDFPPFPQKLKFREPQREERICLVTTNFQTKSMSSMVSDTSCTFPSGDGIFWKHWIQTKDGQCGSPLVSTRDGFIVGIHSASNFTNTNNYFTSVPKNFMELLTNQEAQQWVSGWRLNADSVLWGGHKVFMVKPEEPFQPVKEATQL
# Variants of: B1
# Experiment: raw area under fraction-flipped curve 0-4 h after induction (AUC4h, not background-subtracted), DNA-recorder readout of cleavage of the substrate (dimensionless); higher = more cleavage of the substrate by the protease variant
# Settings: temperature: 34 °C; time window: 0-4 h after rhamnose induction
# 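Further: Bxb1 expression induced with 0.2% (w/v) L-rhamnose at OD600 near 0.5, cultures sampled hourly, flipped fraction per protease–substrate barcode pair counted by paired-end Illumina sequencing.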
Variant,area with substrate ENLYFQI,area with substrate ENLYFQM,area with substrate ENLYFQP,area with substrate ENLYFQR,area with substrate ENLYFQS,area with substrate ENLYFQT,area with substrate ENLYFQY,area with substrate ENLYFQK,area with substrate ENLYFQL,area with substrate ENLYFQN
N206K,0.0951,0.0851,0.0558,0.0595,0.1,,,,,
V220T,0.0652,0.0585,,,0.12,0.065,0.089,,,
E223G,0.0467,0.112,,,0.105,0.0521,,0.0701,0.0653,0.0806
G35N,,,,,0.042,,,0.0427,,0.0465
I84P,,0.0491,0.0245,,0.0497,,,0.0279,0.0271,
T114D,,0.0698,,0.0443,0.0868,,,0.0734,,0.082
N172F,,0.0556,,0.0697,0.0602,,,0.0671,0.075,
E189P,,0.0924,0.0545,0.049,0.0933,0.0615,0.0479,0.0551,0.0901,0.0776
E103F,,,,0.0699,0.0918,0.0617,,,0.0643,0.0795
C131Y,,,,,0.101,,,,0.0713,
F140H,,,,0.038,0.0587,,,,0.053,
H215N,,0.0373,,0.0535,0.0624,,,,0.0554,0.0382
F218Y,,0.0771,,0.0444,0.107,0.119,,,,0.0849
G35C,,,,,0.0597,0.0646,,,,0.0473
I145P,,,0.0608,,0.0674,,,,,
E195V,,,0.0558,0.0656,0.092,,,,,
Q97K,,,,0.0593,,0.0601,,,,
F101D,,,,0.0442,0.0598,,,,,
Y34W,,,,,0.104,,,,,
F92R,,,,,0.0714,,,,,

# Same assay, conditions: temperature: 34 °C; time window: 0-4 h after rhamnose induction
Variant,area with substrate ENLYFQV,area with substrate ENLYFQW,area with substrate ENLYFQQ
T114D,0.0632,,
N172F,,0.0718,
E103F,,0.085,
F140H,,0.0575,0.0643
H215N,,0.0493,0.0367
F218Y,0.0723,0.0809,
G35C,,0.0516,
I145P,,0.0587,
E195V,,,0.0628
F101D,,0.0561,
